Publication PMC5378613
No constants are given. Whether binding was seen depends on the method and setting. For some of these results: In cells and extracts the contact can be indirect. Some results given as binding are weak or reduced against the parent protein; the word gives no strength. Tags and fused reporters may be left off the sequences shown.

Chains of the proteins cited; added tags and fusions are not shown.
UniProt P10275: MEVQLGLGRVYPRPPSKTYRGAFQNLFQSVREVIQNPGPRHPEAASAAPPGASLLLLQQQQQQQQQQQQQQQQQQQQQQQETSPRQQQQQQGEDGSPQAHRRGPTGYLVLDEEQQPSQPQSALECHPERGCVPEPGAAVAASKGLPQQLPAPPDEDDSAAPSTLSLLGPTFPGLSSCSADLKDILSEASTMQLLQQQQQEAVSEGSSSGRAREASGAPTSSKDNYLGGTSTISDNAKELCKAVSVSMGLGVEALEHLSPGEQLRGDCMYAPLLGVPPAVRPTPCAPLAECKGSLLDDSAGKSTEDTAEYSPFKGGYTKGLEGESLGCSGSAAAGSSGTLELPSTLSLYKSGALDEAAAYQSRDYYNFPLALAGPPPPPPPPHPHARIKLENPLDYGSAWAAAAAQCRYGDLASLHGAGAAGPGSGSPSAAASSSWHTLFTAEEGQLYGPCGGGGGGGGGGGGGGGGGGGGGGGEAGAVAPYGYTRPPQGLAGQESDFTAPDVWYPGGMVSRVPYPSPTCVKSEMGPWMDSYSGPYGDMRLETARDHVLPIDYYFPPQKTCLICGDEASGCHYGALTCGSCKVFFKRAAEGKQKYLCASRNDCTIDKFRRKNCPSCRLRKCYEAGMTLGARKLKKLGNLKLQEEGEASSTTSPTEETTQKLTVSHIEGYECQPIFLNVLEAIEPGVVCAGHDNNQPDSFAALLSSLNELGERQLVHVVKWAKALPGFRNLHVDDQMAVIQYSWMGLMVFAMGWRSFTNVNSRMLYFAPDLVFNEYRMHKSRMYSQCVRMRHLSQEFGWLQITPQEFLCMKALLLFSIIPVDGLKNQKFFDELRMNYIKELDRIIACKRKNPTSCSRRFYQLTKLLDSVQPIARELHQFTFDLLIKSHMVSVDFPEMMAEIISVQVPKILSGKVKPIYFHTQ

Legend:
[1] = target: GST-tagged AR (androgen receptor) (UniProt P10275); test: pull-down; GST-AR bound to a glutathione-coupled Sepharose column; recombinant ID4 passed through with 6xHis-FKBP52, cell-free; eluate blotted for ID4, FKBP52 and AR (Pierce GST kit); both purified
[2] = target: T1, wild-type His6-FKBP52 (52-kDa FK506-binding protein) (UniProt Q02790); test: pull-down; 6xHis-tagged FKBP52 bound to a nickel column, incubated with recombinant ID4 or its mutants; blotted (Pierce poly-histidine kit); both purified
T1 sequence: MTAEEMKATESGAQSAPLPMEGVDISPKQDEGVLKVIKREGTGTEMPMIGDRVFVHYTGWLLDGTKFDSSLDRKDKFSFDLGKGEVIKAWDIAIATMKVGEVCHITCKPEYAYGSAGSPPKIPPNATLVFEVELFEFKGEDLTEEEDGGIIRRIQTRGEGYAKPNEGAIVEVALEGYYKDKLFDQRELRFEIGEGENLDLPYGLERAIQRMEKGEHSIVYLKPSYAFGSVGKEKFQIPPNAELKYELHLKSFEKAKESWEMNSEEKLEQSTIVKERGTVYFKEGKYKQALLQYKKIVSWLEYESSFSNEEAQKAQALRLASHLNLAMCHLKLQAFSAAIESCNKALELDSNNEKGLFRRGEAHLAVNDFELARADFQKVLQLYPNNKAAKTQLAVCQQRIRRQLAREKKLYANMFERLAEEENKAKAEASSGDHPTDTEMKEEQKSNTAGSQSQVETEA

[3] = target: T2, GST-ID4S73A (ID4 HLH mutant) (human) (UniProt P47928); test: pull-down; GST-ID4 or mutant GST-ID4 on a column, LNCaP and DU145 whole-cell lysates; bound proteins immunoblotted; only the target purified
T2 sequence: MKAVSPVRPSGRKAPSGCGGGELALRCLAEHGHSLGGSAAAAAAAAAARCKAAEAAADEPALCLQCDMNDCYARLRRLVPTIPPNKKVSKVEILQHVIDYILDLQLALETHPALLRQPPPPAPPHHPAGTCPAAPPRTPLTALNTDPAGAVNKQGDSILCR

[4] = target: T3, GST-ID4∆A mutant (ID4 in which the alanine tract was deleted) (human) (UniProt P47928); test: as above
T3 sequence: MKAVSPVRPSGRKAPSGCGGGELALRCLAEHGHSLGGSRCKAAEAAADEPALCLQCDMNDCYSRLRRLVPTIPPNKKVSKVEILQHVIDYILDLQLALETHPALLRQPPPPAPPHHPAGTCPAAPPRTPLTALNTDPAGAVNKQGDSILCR

[5] = target: T4, full-length GST-ID4 (human) (UniProt P47928); test: as above
T4 sequence: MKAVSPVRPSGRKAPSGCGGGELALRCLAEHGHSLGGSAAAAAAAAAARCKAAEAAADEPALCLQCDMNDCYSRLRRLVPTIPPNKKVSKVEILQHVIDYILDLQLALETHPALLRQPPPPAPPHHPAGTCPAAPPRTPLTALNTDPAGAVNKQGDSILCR

B1: wild-type His6-FKBP52 (52-kDa FK506-binding protein) (protein, UniProt Q02790 1-459)
chain: MTAEEMKATESGAQSAPLPMEGVDISPKQDEGVLKVIKREGTGTEMPMIGDRVFVHYTGWLLDGTKFDSSLDRKDKFSFDLGKGEVIKAWDIAIATMKVGEVCHITCKPEYAYGSAGSPPKIPPNATLVFEVELFEFKGEDLTEEEDGGIIRRIQTRGEGYAKPNEGAIVEVALEGYYKDKLFDQRELRFEIGEGENLDLPYGLERAIQRMEKGEHSIVYLKPSYAFGSVGKEKFQIPPNAELKYELHLKSFEKAKESWEMNSEEKLEQSTIVKERGTVYFKEGKYKQALLQYKKIVSWLEYESSFSNEEAQKAQALRLASHLNLAMCHLKLQAFSAAIESCNKALELDSNNEKGLFRRGEAHLAVNDFELARADFQKVLQLYPNNKAAKTQLAVCQQRIRRQLAREKKLYANMFERLAEEENKAKAEASSGDHPTDTEMKEEQKSNTAGSQSQVETEA
binding [1]: binds

B2: recombinant human ID4 (inhibitor of differentiation 4), full length (protein, UniProt P47928 1-161)
chain: MKAVSPVRPSGRKAPSGCGGGELALRCLAEHGHSLGGSAAAAAAAAAARCKAAEAAADEPALCLQCDMNDCYSRLRRLVPTIPPNKKVSKVEILQHVIDYILDLQLALETHPALLRQPPPPAPPHHPAGTCPAAPPRTPLTALNTDPAGAVNKQGDSILCR
binding [2]: binds

B3: recombinant ID4∆A mutant (ID4 in which the alanine tract was deleted) (protein, UniProt P47928)
chain: MKAVSPVRPSGRKAPSGCGGGELALRCLAEHGHSLGGSRCKAAEAAADEPALCLQCDMNDCYSRLRRLVPTIPPNKKVSKVEILQHVIDYILDLQLALETHPALLRQPPPPAPPHHPAGTCPAAPPRTPLTALNTDPAGAVNKQGDSILCR
binding [2]: binds

B4: FKBP52 (52-kDa FK506-binding protein), endogenous in prostate cancer cells (protein, UniProt Q02790 1-459)
chain: MTAEEMKATESGAQSAPLPMEGVDISPKQDEGVLKVIKREGTGTEMPMIGDRVFVHYTGWLLDGTKFDSSLDRKDKFSFDLGKGEVIKAWDIAIATMKVGEVCHITCKPEYAYGSAGSPPKIPPNATLVFEVELFEFKGEDLTEEEDGGIIRRIQTRGEGYAKPNEGAIVEVALEGYYKDKLFDQRELRFEIGEGENLDLPYGLERAIQRMEKGEHSIVYLKPSYAFGSVGKEKFQIPPNAELKYELHLKSFEKAKESWEMNSEEKLEQSTIVKERGTVYFKEGKYKQALLQYKKIVSWLEYESSFSNEEAQKAQALRLASHLNLAMCHLKLQAFSAAIESCNKALELDSNNEKGLFRRGEAHLAVNDFELARADFQKVLQLYPNNKAAKTQLAVCQQRIRRQLAREKKLYANMFERLAEEENKAKAEASSGDHPTDTEMKEEQKSNTAGSQSQVETEA
binding [3]: no binding | binding [4]: binds | binding [5]: binds

B5: recombinant ID4S73A (ID4 HLH mutant) (protein, UniProt P47928 1-161)
chain: MKAVSPVRPSGRKAPSGCGGGELALRCLAEHGHSLGGSAAAAAAAAAARCKAAEAAADEPALCLQCDMNDCYARLRRLVPTIPPNKKVSKVEILQHVIDYILDLQLALETHPALLRQPPPPAPPHHPAGTCPAAPPRTPLTALNTDPAGAVNKQGDSILCR
binding [2]: no binding
